{"source": "a collection of fitness landscapes (doi:10.1126/science.1257360)", "parents": {"B1": {"name": "PhoQ; a variant is named by its letters at X, in order, P23837 (parent)", "chain": "MKKLLRLFFPLSLRVRFLLATAAVVLVLSLAYGMVALIGYSVSFDKTTFRLLRGESNLFYTLAKWENNKLHVELPENIDKQSPTMTLIYDENGQLLWAQRDVPWLMKMIQPDWLKSNGFHEIEADVNDTSLLLSGDHSIQQQLQEVREDDDDAEMTHSVAVNVYPATSRMPKLTIVVVDTIPVELKSSYMVWSWFIYVLSANLLLVIPLLWVAAWWSLRPIEALAKEVRELEEHNRELLNPATTRELTSLVRNLNRLLKSERERYDKYRTTLTDLTHSLKTPLXXLQXXLRSLRSEKMSVSDAEPVMLEQISRISQQIGYYLHRASMRGGTLLSRELHPVAPLLDNLTSALNKVYQRKGVNISLDISPEISFVGEQNDFVEVMGNVLDNACKYCLEFVEISARQTDEHLYIVVEDDGPGIPLSKREVIFDRGQRVDTLRPGQGVGLAVAREITEQYEGKIVAGESMLGGARMEVIFGRQHSAPKDE"}}, "note": "The other results are listed elsewhere or left out.", "data": [{"variants_of": "B1", "assay": "enrichment ratio after two sorts for PhoP signalling (ratio (wild type AVST 3.29)); higher = more functional", "details": "with PhoP (E. coli)", "values": [{"variant": "QPSG", "enrichment ratio": "≤ 0.25"}, {"variant": "KEAA", "enrichment ratio": "≤ 0.25"}, {"variant": "TPSF", "enrichment ratio": "≤ 0.25"}, {"variant": "EARN", "enrichment ratio": "≤ 0.25"}, {"variant": "TRQL", "enrichment ratio": "≤ 0.25"}, {"variant": "YCGN", "enrichment ratio": "≤ 0.25"}, {"variant": "HYVA", "enrichment ratio": "≤ 0.25"}, {"variant": "SMYH", "enrichment ratio": "≤ 0.25"}, {"variant": "TFVM", "enrichment ratio": "≤ 0.25"}, {"variant": "VIRG", "enrichment ratio": "≤ 0.25"}, {"variant": "SFDV", "enrichment ratio": "≤ 0.25"}, {"variant": "ANDK", "enrichment ratio": "≤ 0.25"}, {"variant": "HMAY", "enrichment ratio": "≤ 0.25"}, {"variant": "PWKA", "enrichment ratio": "≤ 0.25"}, {"variant": "TEYS", "enrichment ratio": 11.9}, {"variant": "GIRT", "enrichment ratio": "≤ 0.25"}, {"variant": "VYHR", "enrichment ratio": "≤ 0.25"}, {"variant": "NDFF", "enrichment ratio": "≤ 0.25"}, {"variant": "SKCS", "enrichment ratio": 6.51}, {"variant": "KYWG", "enrichment ratio": "≤ 0.25"}, {"variant": "HWLC", "enrichment ratio": "≤ 0.25"}, {"variant": "YVIW", "enrichment ratio": "≤ 0.25"}, {"variant": "YLSK", "enrichment ratio": "≤ 0.25"}, {"variant": "NHDY", "enrichment ratio": "≤ 0.25"}, {"variant": "TQGR", "enrichment ratio": "≤ 0.25"}, {"variant": "KHKG", "enrichment ratio": "≤ 0.25"}, {"variant": "FREW", "enrichment ratio": "≤ 0.25"}, {"variant": "IPIT", "enrichment ratio": "≤ 0.25"}, {"variant": "QNLS", "enrichment ratio": "≤ 0.25"}, {"variant": "DLIQ", "enrichment ratio": "≤ 0.25"}, {"variant": "LDEP", "enrichment ratio": "≤ 0.25"}, {"variant": "VRIW", "enrichment ratio": "≤ 0.25"}, {"variant": "ETDL", "enrichment ratio": "≤ 0.25"}, {"variant": "TMWE", "enrichment ratio": "≤ 0.25"}, {"variant": "SHAK", "enrichment ratio": "≤ 0.25"}, {"variant": "SRLY", "enrichment ratio": "≤ 0.25"}, {"variant": "FVWR", "enrichment ratio": "≤ 0.25"}, {"variant": "NNVG", "enrichment ratio": "≤ 0.25"}, {"variant": "WEYL", "enrichment ratio": "≤ 0.25"}, {"variant": "LENY", "enrichment ratio": "≤ 0.25"}, {"variant": "TVPL", "enrichment ratio": 0.544}, {"variant": "KGFF", "enrichment ratio": "≤ 0.25"}, {"variant": "VYTR", "enrichment ratio": "≤ 0.25"}, {"variant": "KSWF", "enrichment ratio": "≤ 0.25"}, {"variant": "IHPF", "enrichment ratio": "≤ 0.25"}, {"variant": "WTHI", "enrichment ratio": "≤ 0.25"}, {"variant": "KIMY", "enrichment ratio": "≤ 0.25"}, {"variant": "YVTK", "enrichment ratio": "≤ 0.25"}, {"variant": "GKNI", "enrichment ratio": "≤ 0.25"}, {"variant": "YRVD", "enrichment ratio": "≤ 0.25"}, {"variant": "WLCK", "enrichment ratio": "≤ 0.25"}, {"variant": "VVML", "enrichment ratio": 0.689}, {"variant": "FWCT", "enrichment ratio": "≤ 0.25"}, {"variant": "QLVM", "enrichment ratio": "≤ 0.25"}, {"variant": "DCSD", "enrichment ratio": "≤ 0.25"}, {"variant": "ANRA", "enrichment ratio": "≤ 0.25"}, {"variant": "MCCQ", "enrichment ratio": 0.422}, {"variant": "KLFF", "enrichment ratio": "≤ 0.25"}, {"variant": "FAGR", "enrichment ratio": "≤ 0.25"}, {"variant": "DGQS", "enrichment ratio": "≤ 0.25"}, {"variant": "SADT", "enrichment ratio": "≤ 0.25"}, {"variant": "RNAT", "enrichment ratio": "≤ 0.25"}, {"variant": "HPDK", "enrichment ratio": "≤ 0.25"}, {"variant": "HILG", "enrichment ratio": "≤ 0.25"}, {"variant": "AEWY", "enrichment ratio": 6.65}, {"variant": "IDRR", "enrichment ratio": "≤ 0.25"}, {"variant": "TYDA", "enrichment ratio": "≤ 0.25"}, {"variant": "WYSS", "enrichment ratio": "≤ 0.25"}, {"variant": "SHTI", "enrichment ratio": 1.6}, {"variant": "IPPL", "enrichment ratio": "≤ 0.25"}, {"variant": "WIYI", "enrichment ratio": "≤ 0.25"}, {"variant": "SYCK", "enrichment ratio": "≤ 0.25"}, {"variant": "AMSC", "enrichment ratio": 4.85}, {"variant": "PPEC", "enrichment ratio": "≤ 0.25"}, {"variant": "YNMD", "enrichment ratio": "≤ 0.25"}, {"variant": "WDRV", "enrichment ratio": "≤ 0.25"}, {"variant": "RGAS", "enrichment ratio": "≤ 0.25"}, {"variant": "MVYN", "enrichment ratio": 3.12}, {"variant": "NTHD", "enrichment ratio": "≤ 0.25"}, {"variant": "VIAQ", "enrichment ratio": "≤ 0.25"}, {"variant": "ECGT", "enrichment ratio": "≤ 0.25"}, {"variant": "TDEN", "enrichment ratio": "≤ 0.25"}, {"variant": "TIWF", "enrichment ratio": "≤ 0.25"}, {"variant": "SHTK", "enrichment ratio": "≤ 0.25"}]}]}
